Results: patent US11366114B2, “Genetically encoded fluorescent sensors for detecting ligand bias and intracellular signaling through cAMP pathways” (MONTANA MOLECULAR LLC, priority 2013, dated 2022)

B1: Library 5-1 E7: cAMP sensor; SEQID 15 in Table 1, SEQ ID NO: 16 in Table 3 (protein)
chain: MVAAHAAHSSSSAEWIACLDKRPLERSSEDVDIIFTRLKEVKAFEKFHPNLLHQICLCGYYENLEKGITLFRQGDIGTNWYAVLAGSLDVKVSETSSHQDAVTICTLGIGTAFGESILDNTPRHATIVTRESSELLRIEQKDFKALWEKYRQYMAGLLAPPYGVMETGSNNDRIPDKENTPLIEPHVPLRPANTITKVPSEKILRAGKILRNAILSRAPHMIRDRKYHLKTYRQCCVGTELVDWMMQQTPCVHSRTQAVGMWQVLLEDGVLNHVDQEHHFQDKYLFYRFLDDEHEDAPLPTEEEKKECDEELQDTMLLLSQMGPDAHMRMILRKPPGQRTVDDLEIIYEELLHIKALSHLSTTVKRELAGVLIFESHAKGGTVLFNQGEEGTSWYIILKGSVNVVIYGKGVVCTLHEGDDFGKLALVNDAPRAASIVLREDNCHFLRVDKEDFNRILRRANVYIKADKQKNGIKANFKIRHNIEDGGVQLAYHYQQNTPIGDGPVLLPDNHYLSVQSILSKDPNEKRDHMVLLEFVTAAGITLGMDELYKGGTGGSMVSKGEELFTGVVPIQVELDGDVNGHKFSVSGEGEGDATYGKLTLKFICTTGKLPVPWPTLVTTLTYGVQCFSRYPDHMKQHDFFKSAMPEGYIQERTIFFKDDGNYKTRAEVKFEGDTLVNRIELKGIDFKEDGNILGHKLEY
B2: Library 2-1 C2: cAMP sensor; SEQID 14 in Table 1, SEQ ID NO: 15 in Table 3 (protein)
chain: MVAAHAAHSSSSAEWIACLDKRPLERSSEDVDIIFTRLKEVKAFEKFHPNLLHQICLCGYYENLEKGITLFRQGDIGTNWYAVLAGSLDVKVSETSSHQDAVTICTLGIGTAFGESILDNTPRHATIVTRESSELLRIEQKDFKALWEKYRQYMAGLLAPPYGVMETGSNNDRIPDKENTPLIEPHVPLRPANTITKVPSEKILRAGKILRNAILSRAPHMIRDRKYHLKTYRQCCVGTELVDWMMQQTPCVHSRTQAVGMWQVLLEDGVLNHVDQEHHFQDKYLFYRFLDDEHEDAPLPTEEEKKECDEELQDTMLLLSQMGPDAHMRMILRKPPGQRTVDDLEIIYEELLHIKALSHLSTTVKRELAGVLIFESHAKGGTVLFNQGEEGTSWYIILKGSVNVVIYGKGVVCTLHEGDDFGKLALVNDAPRAASIVLREDNCHFLRVDKEDFNRILRDVLENVYIKADKQKNGIKANFKIRHNIEDGGVQLAYHYQQNTPIGDGPVLLPDNHYLSVQSILSKDPNEKRDHMVLLEFVTAPGITLGMDELYKGGTGGSMVSKGEELFTGVVPIQVELDGDVNGHKFSVSGEGEGDATYGKLTLKFICTTGKLPVPWPTLVTTLTYGVQCFSRYPDHMKQHDFFKSAMPEGYIQERTIFFKDDGNYKTRAEVKFEGDTLVNRIELKGIDFKEDGNILGHKLEYNTRILRDVEANTVRLKEHDQDVLVLEKVPAGNRASNQGNSQPQQKYTVMSGTPEKILEHFLETIRLEATLNEATDSVLNDFIMMHCVFMPNTQLCPALVAHYHAQPSQGTEQEKMDYALNNKRRVIRLVLQWAAMYGDLLQEDDVSMAFLEEFYVSVSDDARMIAALKEQLPELEKIVKQISEDAKAPQKKHKVLLQQFNTGDERAQKRQPIRGSDEVLFKVYCMDPTYTTIRVPVATSVKEVISAVADKLGSGEGLIIVKMSSGGEKVVLKPNDVSVFMTLTINGRLFACPREQFDSLTPLPEQEGPTVGTVGTFELMSSKDLAYQMTIYDWELFNCVHELELIYHTFGRHNFKKTTANLDLFLRRFNEIQFWVVTEICLCSQLSKRVQLLKKFIKIAAHCKEYKNLNSFFAIVMGLSNVAVSRLALTWEKLPSKFKKFYAEFESLMDPSRNHRAYRLTVAKLEPPLIPFMPLLIKDMTFTHEGNKTFIDNLVNFEKMRMIANTARTVRYYRSQPFNPDAAQANKNHQDVRSYVRQLNVIDNQRTLSQMSHRLEPRRP
B3: Library 2-2 A11: cAMP sensor; SEQID 19 in Table 1, SEQ ID NO: 20 in Table 3 (protein)
chain: MVAAHAAHSSSSAEWIACLDKRPLERSSEDVDIIFTRLKEVKAFEKFHPNLLHQICLCGYYENLEKGITLFRQGDIGTNWYAVLAGSLDVKVSETSSHQDAVTICTLGIGTAFGESILDNTPRHATIVTRESSELLRIEQKDFKALWEKYRQYMAGLLAPPYGVMETGSNNDRIPDKENTPLIEPHVPLRPANTITKVPSEKILRAGKILRNAILSRAPHMIRDRKYHLKTYRQCCVGTELVDWMMQQTPCVHSRTQAVGMWQVLLEDGVLNHVDQEHHFQDKYLFYRFLDDEHEDAPLPTEEEKKECDEELQDTMLLLSQMGPDAHMRMILRKPPGQRTVDDLEIIYEELLHIKALSHLSTTVKRELAGVLIFESHAKGGTVLFNQGEEGTSWYIILKGSVNVVIYGKGVVCTLHEGDDFGKLALVNDAPRAASIVLREDNCHFLRVDKEDFNRILRLENVYIKADKQKNGIKANFKIRHNIEDGGVQLAYHYQQNTPIGDGPVLLPDNHYLSVQSILSKDPNEKRDHMVLLEFVTAAGITLGMDELYKGGTGGSMVSKGEELFTGVVPIQVELDGDVNGHKFSVSGEGEGDATYGKLTLKFICTTGKLPVPWPTLVTTLTYGVQCFSRYPDHMKQHDFFKSAMPEGYIQERTIFFKDDGNYKTRAEVKFEGDTLVNRIELKGIDFKEDGNILGHKLEYNTRNTVRLKEHDQDVLVLEKVPAGNRASNQGNSQPQQKYTVMSGTPEKILEHFLETIRLEATLNEATDSVLNDFIMMHCVFMPNTQLCPALVAHYHAQPSQGTEQEKMDYALNNKRRVIRLVLQWAAMYGDLLQEDDVSMAFLEEFYVSVSDDARMIAALKEQLPELEKIVKQISEDAKAPQKKHKVLLQQFNTGDERAQKRQPIRGSDEVLFKVYCMDPTYTTIRVPVATSVKEVISAVADKLGSGEGLIIVKMSSGGEKVVLKPNDVSVFMTLTINGRLFACPREQFDSLTPLPEQEGPTVGTVGTFELMSSKDLAYQMTIYDWELFNCVHELELIYHTFGRHNFKKTTANLDLFLRRFNEIQFWVVTEICLCSQLSKRVQLLKKFIKIAAHCKEYKNLNSFFAIVMGLSNVAVSRLALTWEKLPSKFKKFYAEFESLMDPSRNHRAYRLTVAKLEPPLIPFMPLLIKDMTFTHEGNKTFIDNLVNFEKMRMIANTARTVRYYRSQPFNPDAAQANKNHQDVRSYVRQLNVIDNQRTLSQMSHRLEPRRP
B4: Library 2-2 D1: cAMP sensor; SEQID 18 in Table 1, SEQ ID NO: 19 in Table 3 (protein)
chain: MVAAHAAHSSSSAEWIACLDKRPLERSSEDVDIIFTRLKEVKAFEKFHPNLLHQICLCGYYENLEKGITLFRQGDIGTNWYAVLAGSLDVKVSETSSHQDAVTICTLGIGTAFGESILDNTPRHATIVTRESSELLRIEQKDFKALWEKYRQYMAGLLAPPYGVMETGSNNDRIPDKENTPLIEPHVPLRPANTITKVPSEKILRAGKILRNAILSRAPHMIRDRKYHLKTYRQCCVGTELVDWMMQQTPCVHSRTQAVGMWQVLLEDGVLNHVDQEHHFQDKYLFYRFLDDEHEDAPLPTEEEKKECDEELQDTMLLLSQMGPDAHMRMILRKPPGQRTVDDLEIIYEELLHIKALSHLSTTVKRELAGVLIFESHAKGGTVLFNQGEEGTSWYIILKGSVNVVIYGKGVVCTLHEGDDFGKLALVNDAPRAASIVLREDNCHFLRVDKEDFNRILRLENVYIKADKQKNGIKANFKIRHNIEDGGVQLAYHYQQNTPIGDGPVLLPDNHYLSVQSILSKDPNEKRDHMVLLEFVTAAGITLGMDELYKGGTGGSMVSKGEELFTGVVPIQVELDGDVNGHKFSVSGEGEGDATYGKLTLKFICTTGKLPVPWPTLVTTLTYGVQCFSRYPDHMKQHDFFKSAMPEGYIQERTIFFKDDGNYKTRAEVKFEGDTLVNRIELKGIDFKEDGNILGHKLEYNTRILRDVEANTVRLKEHDQDVLVLEKVPAGNRASNQGNSQPQQKYTVMSGTPEKILEHFLETIRLEATLNEATDSVLNDFIMMHCVFMPNTQLCPALVAHYHAQPSQGTEQEKMDYALNNKRRVIRLVLQWAAMYGDLLQEDDVSMAFLEEFYVSVSDDARMIAALKEQLPELEKIVKQISEDAKAPQKKHKVLLQQFNTGDERAQKRQPIRGSDEVLFKVYCMDPTYTTIRVPVATSVKEVISAVADKLGSGEGLIIVKMSSGGEKVVLKPNDVSVFMTLTINGRLFACPREQFDSLTPLPEQEGPTVGTVGTFELMSSKDLAYQMTIYDWELFNCVHELELIYHTFGRHNFKKTTANLDLFLRRFNEIQFWVVTEICLCSQLSKRVQLLKKFIKIAAHCKEYKNLNSFFAIVMGLSNVAVSRLALTWEKLPSKFKKFYAEFESLMDPSRNHRAYRLTVAKLEPPLIPFMPLLIKDMTFTHEGNKTFIDNLVNFEKMRMIANTARTVRYYRSQPFNPDAAQANKNHQDVRSYVRQLNVIDNQRTLSQMSHRLEPRR
B5: Library 2-2 G4: cAMP sensor; SEQID 13 in Table 1, SEQ ID NO: 14 in Table 3 (protein)
chain: MVAAHAAHSSSSAEWIACLDKRPLERSSEDVDIIFTRLKEVKAFEKFHPNLLHQICLCGYYENLEKGITLFRQGDIGTNWYAVLAGSLDVKVSETSSHQDAVTICTLGIGTAFGESILDNTPRHATIVTRESSELLRIEQKDFKALWEKYRQYMAGLLAPPYGVMETGSNNDRIPDKENTPLIEPHVPLRPANTITKVPSEKILRAGKILRNAILSRAPHMIRDRKYHLKTYRQCCVGTELVDWMMQQTPCVHSRTQAVGMWQVLLEDGVLNHVDQEHHFQDKYLFYRFLDDEHEDAPLPTEEEKKECDEELQDTMLLLSQMGPDAHMRMILRKPPGQRTVDDLEIIYEELLHIKALSHLSTTVKRELAGVLIFESHAKGGTVLFNQGEEGTSWYIILKGSVNVVIYGKGVVCTLHEGDDFGKLALVNDAPRAASIVLREDNCHFLRVDKEDFNRILRLENVYIKADKQKNGIKANFKIRHNIEDGGVQLAYHYQQNTPIGDGPVLLPDNHYLSVQSILSKDPNEKRDHMVLLEFVTAAGITLGMDELFKGGTGGSMVSKGEELFTGVVPIQVELDGDVNGHKFSVSGEGEGDATYGKLTLKFICTTGKLPVPWPTLVTTLTYGVQCFSRYPDHMKQHDFFKSAMPEGYIQERTIFFKDDGNYKTRAEVKFEGDTLVNRIELKGIDFKEDGNILGHKLEYNTRVEANTVRLKEHDQDVLVLEKVPAGNRASNQGNSQPQQKYTVMSGTPEKILEHFLETIRLEATLNEATDSVLNDFIMMHCVFMPNTQLCPALVAHYHAQPSQGTEQEKMDYALNNKRRVIRLVLQWAAMYGDLLQEDDVSMAFLEEFYVSVSDDARMIAALKEQLPELEKIVKQISEDAKAPQKKHKVLLQQFNTGDERAQKRQPIRGSDEVLFKVYCMDPTYTTIRVPVATSVKEVISAVADKLGSGEGLIIVKMSSGGEKVVLKPNDVSVFMTLTINGRLFACPREQFDSLTPLPEQEGPTVGTVGTFELMSSKDLAYQMTIYDWELFNCVHELELIYHTFGRHNFKKTTANLDLFLRRFNEIQFWVVTEICLCSQLSKRVQLLKKFIKIAAHCKEYKNLNSFFAIVMGLSNVAVSRLALTWEKLPSKFKKFYAEFESLMDPSRNHRAYRLTVAKLEPPLIPFMPLLIKDMTFTHEGNKTFIDNLVNFEKMRMIANTARTVRYYRSQPFNPDAAQANKNHQDVRSYVRQLNVIDNQRTLSQMSHRLEPRRP

Test system: cAMP
Experiment: Fluorescence response of cAMP sensors to isoproterenol in HEK 293 cells co-expressing the beta adrenergic receptor
Format: cell-based, human
Conditions: in response to isoproternol
Procedure, shortened: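 HEK 293 or HEK 293T cells were transiently co-transfected with sensor construct and beta adrenergic receptor, then imaged 24-48 h later in DPBS at 25 °C. Green fluorescence change (488/530 nm in plate reader) was recorded after isoproterenol, DMSO, forskolin or IBMX addition, background-subtracted.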

| Molecule | Relative Change in Fluorescence |
| --- | --- |
| B1 | −34% |
| B2 | 35% |
| B3 | 33% |
| B4 | −33% |
| B5 | −36% |
